From the supplement of paper PMC11417369 come the findings set out here.

± gives the standard deviation of the averaged measurements. Some of the results follow.

For this experiment, the system named is PfAP2-G AP2 domain (GST-tagged). Nature of the experiment: gcPBM binding intensity (ln(normalized median fluorescence intensity)); higher = stronger DNA binding. Put shortly: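 For binding intensity, the highest Masliner-normalised natural-log median intensity across replicate spots of either probe orientation was taken. Protein bound to the array was stained with Alexa488 anti-GST antibody and scanned at 488 nm. The protein, GST-tagged P. falciparum DNA-binding domains from E. coli at about 25 μg on average, had been applied for 1 h to an Agilent 4 × 180k array of primer-extended double-stranded 36-bp intergenic genomic probes and negative controls.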
As to “TTTATTTTATTCACTATCATAAGCAAAACTTAAACA [GTGCAC_negctrl_site287]”, the “gcPBM binding intensity (ln)” value stood at 9.89 ± 0.28.
On to “ATTAATAATATTACATGTACATAATATAATTGAAAA [XGTACX_site5084]”, for which the “gcPBM binding intensity (ln)” value turned out to be 11.2 ± 0.73.
Consider “TGTATATGAAAAAATAGTACTCATATAAATATCTTT [XGTACX_site6542]”, for which the “gcPBM binding intensity (ln)” value came out at 11.2 ± 0.76.
Then “ATAATATATTTATAAACACACAAAAAAAGTTATATA [CACACA_site6831]”, with 9.995 ± 0.049; and “TAGTTAATATGATTATGTACATATATATATTAATTT [XGTACX_site1750]”, with 11.1 ± 0.46; and “TTAGATATTATTATATGTACATATTATATGTATTAT [XGTACX_site3836]”, with 11.1 ± 0.69.
“ATTTTTTTTTTTTTTTTTTTTTTTTTTTTTGTTGTT [CACACA_negctrl_site1313]”: the “gcPBM binding intensity (ln)” value came to 9.62 ± 0.16.
Take “AAAAAAAATACATGTTGTACGGTACAAATATAAAGT [XGTACX_site2863]”: the “gcPBM binding intensity (ln)” value was found to be 11.1 ± 0.47.
In the case of “ACAAAGATAAAACATAAAATATATCAAACATAAAAT [XGTACX_negctrl_site198]”, the “gcPBM binding intensity (ln)” value came to 9.89 ± 0.11.
Regarding “AATAAATATAAATACACACCCATATAAATATAAATA [CACACA_site7264]”, the “gcPBM binding intensity (ln)” value is 10 ± 0.028.
For “AAAAAAATAATAAAATGTACAAATAAACACATAAAG [XGTACX_site5102]”, the “gcPBM binding intensity (ln)” value stood at 10.8 ± 0.39.
Then “AAATAAAATAAAACAACACACACGAATGTATAAATA [CACACA_site885]”, with 10 ± 0.13; and “AAAATAATAAAAAAAAAAAAAAAAAAAAAAAAGTAT [TGCATGCA_negctrl_site193]”, with 9.795 ± 0.035; and “ATATATCTTCTTTGCACACTTAAAGGGAAGTGATAA [CACACA_site342]”, with 10.2 ± 0.36.
In the case of “TAATGTATCTAAAATTGTACAAATATAAATCTAAAT [XGTACX_site1197]”, the “gcPBM binding intensity (ln)” value was determined as 11.1 ± 0.75.
Take “CGCGCCCAGAAACACACACACACACCGATATATATA [CACACA_site5250]”: the “gcPBM binding intensity (ln)” value amounted to 10.3 ± 0.38.
As for “TGTGTTGTAATTAAAACACACATGAAAAAATTAAAA [CACACA_site51]”, the “gcPBM binding intensity (ln)” value worked out at 9.96 ± 0.16.
“GTATTATTCTATAGAAGTACAGTATATTATTATTTA [XGTACX_site5073]”: the “gcPBM binding intensity (ln)” value is 11.4 ± 1.
For the sequence “TATATACACGCACATACACACAAATAAAAAAACACC [CACACA_site7578]”, the “gcPBM binding intensity (ln)” value came out at 10.8 ± 0.59.
Regarding “TATAACAATTTTTATGCATGCGACTATAATATTTTT [TGCATGCA_site508]”, the “gcPBM binding intensity (ln)” value was found to be 10 ± 0.099.
“TACAACAAGTAATGGTGTACATTATATTATGTAATA [XGTACX_site1194]”: the “gcPBM binding intensity (ln)” value worked out at 11.4 ± 0.56.
Under “CATACACATATATATTGTACACATATATGTATGTAT [XGTACX_site4030]” stands 11.2 ± 0.69.
Turning to “ATATTTTTTTTTTATTGTACCCTCATAAAAGAAAAG [XGTACX_site773]”, the “gcPBM binding intensity (ln)” value came out at 11.2 ± 0.85.
Take “TAAGGATTGGTATAAAGTACAGGAGTAAATTGAAAA [XGTACX_site8525]”: the “gcPBM binding intensity (ln)” value amounted to 11.2 ± 0.65.
On to “TACATATTGAATAAGACACACATATATATATATATA [CACACA_site1878]”, for which the “gcPBM binding intensity (ln)” value was 10.2 ± 0.64.
For “TGTGCATAATTTTGTGCACACCACGCTAATAATTTT [CACACA_site2915]”, the “gcPBM binding intensity (ln)” value is 10.5 ± 0.38.
On to “AAGCTTTCATAAAGATGTACTTTTTAAAAATAATCT [XGTACX_site5725]”, for which the “gcPBM binding intensity (ln)” value is 11.2 ± 0.91.
Regarding “GGAATAAATAATATTATACACACGTATATTATTATA [CACACA_site2435]”, the “gcPBM binding intensity (ln)” value stood at 9.7 ± 0.16.
Turning to “AATTTGTTGAAACACACACACACATACATATATATA [CACACA_site2287]”, the “gcPBM binding intensity (ln)” value turned out to be 10.26 ± 0.014.
Take “TAAAATAATAAACAGAAGAAATCATTCATATAAAAA [XGTACX_negctrl_site502]”: the “gcPBM binding intensity (ln)” value was 9.635 ± 0.035.
On to “AAAATAAAAAATTAATGTACTTAGAATTGTCACTAA [XGTACX_site1346]”, for which the “gcPBM binding intensity (ln)” value was 11.1 ± 0.61.
On to “TTTTTCATGTTTATTAGTACATATATTAAGAATGGA [XGTACX_site3493]”, for which the “gcPBM binding intensity (ln)” value worked out at 11 ± 0.72.
In the case of “TTTTGTAAATATATATGTACATATATATATATATAT [XGTACX_site5803]”, the “gcPBM binding intensity (ln)” value was 11.4 ± 0.75.
With “ACCTATTTATAATAGTGTACGTACAAATTTGTTTAC [XGTACX_site8176]”, the “gcPBM binding intensity (ln)” value stood at 11.7 ± 0.89.
For “ATATTTATTTATAATTGTACTAATAATATATTTTAA [XGTACX_site587]”, the “gcPBM binding intensity (ln)” value was 11 ± 0.73.
Take “ATGTATCTATATATATGTACACATATTTTAATTAAA [XGTACX_site3673]”: the “gcPBM binding intensity (ln)” value was found to be 11.4 ± 0.85.
Then “ATAAATATATGATAAAGTACATATTTATATAATAAA [XGTACX_site7263]”, with 11 ± 0.54; and “TGATATTATATATATACACACATGTATGTATATATA [CACACA_site1364]”, with 9.8 ± 0.071; and “AATTATTATCCCCTCACACACAAAAATAAAAAGAAT [CACACA_site2885]”, with 10.4 ± 0.3.
As for “ATTTTTTATTGTTATAAAAAAAAAATTAAACAATTA [CACACA_negctrl_site1077]”, the “gcPBM binding intensity (ln)” value was determined as 9.87 ± 0.15.
Take “TATATCTATAATATTACACACATATATTTATATTTT [CACACA_site7595]”: the “gcPBM binding intensity (ln)” value was 9.795 ± 0.021.
Regarding “AGCAGGATTAAAAAAAGTACAAGAATTAATATTTAA [XGTACX_site3413]”, the “gcPBM binding intensity (ln)” value amounted to 11.3 ± 0.88.
Then ATATATAATAAACAGGTGCATTGTTTTATTTTGTAT, with 9.78 ± 0.057.
Then “ACCAGTTCTTAATACAAATATGTACATATATATATA [GTGCAC_negctrl_site56]”, with 11.2 ± 0.68.
